{
  "source": "PubChem BioAssay AID1030",
  "about": "(National Center for Advancing Translational Sciences (NCATS), 2008)",
  "note": "Out of some 220,000 compounds screened, about 16,000 (7.3%) were called active. Inconclusive means that the source gave no clear call. Such entries were picked first, then a sample of the others. Calls come from the whole dose curve; as a rule, active = well fitted inhibition curve with a large enough effect (not every such curve was filed as active); inconclusive = small, poorly fitted or top-dose-only effect, or another doubt; inactive = no such curve, though single readings can be large or run the other way. Potencies of inconclusive entries are left out as doubtful fits. Potency is the fitted concentration of half-maximal effect; tags give direction and shape of the fitted curve.",
  "data": [
    {"target": "Aldehyde dehydrogenase 1A1 (Homo sapiens) (UniProt P00352)", "sequence (P00352 whole entry, looked up)": "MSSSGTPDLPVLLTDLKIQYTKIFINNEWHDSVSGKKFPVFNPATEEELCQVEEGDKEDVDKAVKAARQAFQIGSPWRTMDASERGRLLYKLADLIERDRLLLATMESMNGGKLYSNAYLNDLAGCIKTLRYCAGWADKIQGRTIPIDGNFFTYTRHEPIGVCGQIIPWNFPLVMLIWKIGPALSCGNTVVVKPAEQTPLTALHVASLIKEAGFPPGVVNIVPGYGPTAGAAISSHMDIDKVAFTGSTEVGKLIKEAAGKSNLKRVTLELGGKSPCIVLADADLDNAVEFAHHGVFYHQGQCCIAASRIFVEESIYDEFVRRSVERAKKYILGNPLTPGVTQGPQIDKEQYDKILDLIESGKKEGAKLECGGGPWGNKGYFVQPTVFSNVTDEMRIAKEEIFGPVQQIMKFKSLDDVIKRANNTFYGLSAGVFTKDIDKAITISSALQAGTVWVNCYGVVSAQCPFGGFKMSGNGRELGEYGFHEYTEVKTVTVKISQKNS", "experiment": "qHTS Assay for Inhibitors of Aldehyde Dehydrogenase 1 (ALDH1A1)", "conditions": "Purified ALDH1A1, NADH fluorescence, propionaldehyde substrate; series mostly up to 75.3 µM", "values": [
      {"molecule": "Cc1ccc(CS(=O)(=O)c2ccc(C(=O)N3CCN(c4ccccn4)CC3)cc2[N+](=O)[O-])cc1", "Potency": "inconclusive [inhibitor, single point]"},
      {"molecule": "CCOc1ccc(C2C(C(=O)/C=C/c3ccco3)=C(O)C(=O)N2CCN2CCOCC2)cc1OC", "note": "(stereo not given)", "Potency": "inconclusive [inhibitor, single point]"},
      {"molecule": "Clc1ccc(C2=CC(c3ccco3)n3ncnc3N2)cc1", "note": "(stereo not given)", "Potency": "inconclusive [inhibitor, single point]"},
      {"molecule": "Cn1c(=O)oc2cc(C(=O)c3ccccc3)ccc21", "Potency": "inconclusive [inhibitor, single point]"},
      {"molecule": "CCOC(=O)c1cnn(-c2nc(-c3cccc(F)c3)cs2)c1C(F)(F)F", "Potency": "inconclusive [inhibitor, single point]"},
      {"molecule": "C/C(=N\\Nc1nnc(-c2ccccc2)c(-c2ccccc2)n1)c1cccc([N+](=O)[O-])c1", "Potency": "inconclusive [inhibitor, single point]"},
      {"molecule": "CCCn1c(SCc2cc(=O)[nH]c3ccccc23)nc2c1c(=O)n(C)c(=O)n2C", "Potency": "inconclusive [inhibitor, single point]"},
      {"molecule": "COc1ccc(C)cc1NC(=O)CSc1nnc(-c2ccc(Br)cc2)o1", "Potency": "inconclusive [inhibitor, single point]"},
      {"molecule": "COC(=O)c1ccccc1S(=O)(=O)N1CCc2nc(-c3ccccc3)c3c(c2C1)CO[C@@H](C)C3", "Potency": "inconclusive [inhibitor, partial curve]"},
      {"molecule": "CN(CC(=O)N1CCCC1)S(=O)(=O)c1ccc2ccccc2c1", "Potency": "inconclusive [inhibitor, partial curve, poor fit]"},
      {"molecule": "Cc1noc(C)c1COC(=O)c1ccccc1Oc1ccccc1", "Potency": "inconclusive [inhibitor, single point]"},
      {"molecule": "O=C(Cc1n[nH]c(=O)[nH]c1=O)N/N=C/c1cccc(Cl)c1", "Potency": "inactive"},
      {"molecule": "O=C(NCCC1=CCCCC1)C1CCN(C(=O)c2ccc(Cl)cc2)CC1", "Potency": "inconclusive [inhibitor, partial curve]"},
      {"molecule": "COc1ccc(-n2c(CN3CCN(Cc4ccccc4)CC3)nc3ccc([N+](=O)[O-])cc3c2=O)c(OC)c1", "Potency": "active: 20 µM"},
      {"molecule": "Cc1cc(C)nc(N/N=C2/CCCC/C2=C\\c2ccccc2)n1", "Potency": "inactive"},
      {"molecule": "O=C(CSc1nnc2c(n1)[nH]c1ccccc12)NCc1ccco1", "Potency": "inconclusive [inhibitor, single point]"},
      {"molecule": "Cc1cc(C)nc(NS(=O)(=O)c2ccc(NC(=O)c3cc(-c4ccccc4)nc4ccccc34)cc2)n1", "Potency": "inconclusive [inhibitor, single point]"},
      {"molecule": "CC(C)NC(=O)NC(=O)COc1ccc(Br)cc1Br", "Potency": "inactive"},
      {"molecule": "CCOc1cnn(-c2cc(Oc3ccc(C)cc3)ncn2)c(=O)c1Cl", "Potency": "active: 11.2 µM"},
      {"molecule": "N#CC(C#N)=C1C=CC=CN1/C(=C\\c1ccccc1)C(=O)c1cccs1", "Potency": "inconclusive [inhibitor, partial curve]"},
      {"molecule": "C[C@@]1(C(NC(=O)Cc2ccccc2)c2ccc(-c3ccccc3)cc2)C[C@H]1C1CCCCC1", "note": "(stereo not given in full)", "Potency": "inactive"},
      {"molecule": "O=C(O)[C@H]1CCCNC1", "Potency": "inactive"},
      {"molecule": "Cc1cccc(C(=O)Nc2cccc(OCC(=O)O)c2)c1", "Potency": "inactive"},
      {"molecule": "CCCCn1nc(C(=O)Nc2ccc(S(=O)(=O)Nc3ncccn3)cc2)c2ccccc2c1=O", "Potency": "inactive"},
      {"molecule": "COc1ccc(CCN2C(=O)CC(C(N)=O)SC2=Nc2ccccc2)cc1OC", "note": "(stereo not given)", "Potency": "active: 14.1 µM"},
      {"molecule": "CCOC(=O)C(=NCCOC)NNc1cc(Cl)ccc1Cl", "Potency": "inconclusive [inhibitor, single point]"},
      {"molecule": "COc1ccc(-n2c(N)c(C(=O)NCc3ccco3)c3nc4ccccc4nc32)c(OC)c1", "Potency": "inconclusive [inhibitor, partial curve]"},
      {"molecule": "COc1ccc(CNC(=O)COC(=O)C2CCC(C(C)(C)C)CC2)cc1", "note": "(stereo not given)", "Potency": "inconclusive [inhibitor, partial curve]"},
      {"molecule": "N#CC1=C(N)Oc2c(oc(CO)cc2=O)C1c1ccsc1", "note": "(stereo not given)", "Potency": "inactive"},
      {"molecule": "CCCCCCn1c(SCC(=O)OC)nc2c1c(=O)[nH]c(=O)n2C", "Potency": "active: 3.55 µM"},
      {"molecule": "CCOC(=O)c1c(C)n(CC(O)CN(C)C)c2cc(Br)c(OC)cc12", "note": "(stereo not given)", "Potency": "inconclusive [inhibitor, single point]"},
      {"molecule": "CCn1cnc2sc(-c3ccccc3)cc2c1=O", "Potency": "active: 14.1 µM"},
      {"molecule": "COC(=O)CCc1sc(Nc2ccc(Br)cc2)nc1-c1ccc(OC)cc1", "Potency": "inconclusive [inhibitor, single point]"},
      {"molecule": "CS(=O)(=O)N1CCC(C(=O)NCc2ccncc2)CC1", "Potency": "inactive"},
      {"molecule": "NNC(=O)c1cccc(COc2ccc(Br)cc2)c1", "Potency": "active: 0.631 µM"},
      {"molecule": "O=C(CSc1nc2ccccc2s1)NNC(=S)Nc1ccc(Br)cc1", "Potency": "active: 8.91 µM"},
      {"molecule": "CSc1nncc(/C(C)=N\\Nc2ccccc2)n1", "Potency": "inconclusive [inhibitor, single point]"},
      {"molecule": "CCCc1cc(=O)[nH]c(SCC(=O)N2CCN(c3ccc(F)cc3)CC2)n1", "Potency": "inconclusive [inhibitor, single point]"},
      {"molecule": "CC1=C(C(=O)N2CCOCC2)C(c2ccc(-c3ccccc3)cc2)NC(=S)N1", "note": "(stereo not given)", "Potency": "inconclusive [inhibitor, partial curve]"},
      {"molecule": "CN1CCN(Cc2nc3ccccc3c(=O)n2Cc2nc(-c3ccc([N+](=O)[O-])cc3)cs2)CC1", "Potency": "active: 12.6 µM"},
      {"molecule": "S=C(c1ccc(-c2cccc(Cl)c2)o1)N1CCCCC1", "Potency": "active: 14.1 µM"},
      {"molecule": "Cc1ccc(S(=O)(=O)N2CCC(C(=O)N3CCN(Cc4ccccc4)CC3)CC2)cc1", "Potency": "inconclusive [inhibitor, single point]"},
      {"molecule": "CCOc1cc(N2CCCC2)ccc1[N+](=O)[O-]", "Potency": "inactive"},
      {"molecule": "CCn1c2ccccc2c2cc(/C=N/n3c(C)nnc3C)ccc21", "Potency": "inconclusive [inhibitor, partial curve]"},
      {"molecule": "CCOc1ccc(-n2c(=S)sc3c(=O)[nH]c(SCC(=O)NCc4ccco4)nc32)cc1", "Potency": "inconclusive [inhibitor, single point]"}
    ]}
  ]
}
